Test results published in article PMC9911399, “Two distinct binding modes provide the RNA-binding protein RbFox with extraordinary sequence specificity”.
Residue numbers refer to the chain shown, from its start. This is one part of the list.

T1: RBFOX1 RRM RbFoxmut (Fox-RRM*) (Homo sapiens, UniProt Q9NWB1 109-208, R118D;E147R;N151S;E152T)
T1 sequence: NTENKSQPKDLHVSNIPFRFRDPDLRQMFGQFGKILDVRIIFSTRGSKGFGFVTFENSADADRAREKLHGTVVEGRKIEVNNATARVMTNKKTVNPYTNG

B1: CUAAUUU (DNA:RNA)
RNA: GGGAGACCGGAAUUCAGAUUGUCCCUAAUUUUUAAAUCCCGUCGUAGCCACCA
DNA 1: CAATCTGAATTCCGGTCTCCC
DNA 2: TGGTGGCTACGACGGGATT
B2: GAUCUCA (DNA:RNA)
RNA: B1 RNA with C25G, U26A, A27U, A28C, U30C, U31A
DNA 1: CAATCTGAATTCCGGTCTCCC
DNA 2: TGGTGGCTACGACGGGATT
B3: UAGCAGG (DNA:RNA)
RNA: GGGAGACCGGAAUUCAGAUUGUCCUAGCAGGUUAAAUCCCGUCGUAGCCACCA
DNA 1: CAATCTGAATTCCGGTCTCCC
DNA 2: TGGTGGCTACGACGGGATT
B4: GUAAUGG (DNA:RNA)
RNA: B1 RNA with C25G, U30G, U31G
DNA 1: CAATCTGAATTCCGGTCTCCC
DNA 2: TGGTGGCTACGACGGGATT
B5: GGAUAGU (DNA:RNA)
RNA: B1 RNA with C25G, U26G, A28U, U29A, U30G
DNA 1: CAATCTGAATTCCGGTCTCCC
DNA 2: TGGTGGCTACGACGGGATT
B6: GAAAGCG (DNA:RNA)
RNA: B1 RNA with C25G, U26A, U29G, U30C, U31G
DNA 1: CAATCTGAATTCCGGTCTCCC
DNA 2: TGGTGGCTACGACGGGATT
B7: CCAGCGA (DNA:RNA)
RNA: B1 RNA with U26C, A28G, U29C, U30G, U31A
DNA 1: CAATCTGAATTCCGGTCTCCC
DNA 2: TGGTGGCTACGACGGGATT
B8: UAGCCUA (DNA:RNA)
RNA: B3 RNA with A29C, G30U, G31A
DNA 1: CAATCTGAATTCCGGTCTCCC
DNA 2: TGGTGGCTACGACGGGATT
B9: CAUUCAG (DNA:RNA)
RNA: B3 RNA with U25C, G27U, C28U, A29C, G30A
DNA 1: CAATCTGAATTCCGGTCTCCC
DNA 2: TGGTGGCTACGACGGGATT

target: T1, RBFOX1 RRM RbFoxmut (Fox-RRM*); assay: EMSA; HiTS-Eq, 1 nM pool, 10 min; buffer printed only for the single-RNA assays: 10 mM Tris pH 7.5, 150 mM NaCl, 3.4 mM EDTA, 0.001% NP-40, 30 C; settings: tags: His6 N-terminal (pET28a); label: 5' 32P
Method in brief: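 Purified RbFox RRM (wild type or mutant) was equilibrated for 10 min in 50 µL with 1 nM of a 5′-radiolabelled pool of RNA with 7 randomized nucleotides, its flanks annealed to DNA oligonucleotides, across increasing protein concentrations. Free RNA was separated by 8% native PAGE, excised, reverse-transcribed, PCR-barcoded and sequenced on an Illumina HiSeq 2500. Relative association constants came from read-count changes of each variant against the control reaction, normalised to the cognate motif.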

Which binding signal does the source give for B1 here?
Its binding signal is 0.0946 KA relative to UGCAUGU.

B2 was tested. Which binding signal did it give?
The binding signal was 0.106 KA relative to UGCAUGU.

B3 was tested. Which binding signal did it give?
Its binding signal is 0.0972 KA relative to UGCAUGU.

How did the binding signal turn out when B4 was run?
Its binding signal is 0.0836 KA relative to UGCAUGU.

How did the binding signal turn out when B5 was run?
Its binding signal is 0.158 KA relative to UGCAUGU.

With B6 as the binder, how does the binding signal read?
The binding signal was 0.0815 KA relative to UGCAUGU.

For B7, which binding signal is on record?
Its binding signal is 0.0745 KA relative to UGCAUGU.

B8 was tested. Which binding signal did it give?
Its binding signal is 0.0899 KA relative to UGCAUGU.

B9 was tested. Which binding signal did it give?
Its binding signal is 0.141 KA relative to UGCAUGU.
